# Reference: US12564641B2 (EISAI R&D MANAGEMENT CO., LTD., priority 2019, dated 2026)
# B1: MORAb-109 (conjugate)
# heavy: QVQLVESGGGVVQPGRSLRLSCAASGIDLSSYAMSWVRQAPGKGLEWIGVIDISGNRFYADWVKGRFTISRDNSKNTLYLQMSSLRAEDTAVYYCARVDSRAWGPFNLWGQGTLVTVSS[skipping human IgG1 constant region]
# light: DYQMTQSPSSLSASVGDRVTITCQASQSIFSYLAWYQQKPGKAPKLLIYDASDLASGVPSRFSGSGSGTDFTLTISSLQCEDAATYYCQQGYTRSDVDNAFGGGTKVEIKRTVAAPSVFIFPPSDEQLKSGTASVVCLLNNFYPREAKVQWKVDNALQSGNSQESVTEQDSKDSTYSLSSTLTLSKADYEKHKVYACEVTHQGLSSPVTKSFNRGEC
# modifications: non-natural residues
# Tests used:
# [1] = Pharmacokinetics (total antibody and intact ADC, Gyros) in NCI-N87 tumor-bearing mice, dose titration (Example 5); type: in vivo, mouse; details: NCI-N87 tumor-bearing mice
# Procedure: PK analysis was performed using both an intact ADC assay and a total antibody assay. Total antibody refers to the sum total of all species, including conjugated and unconjugated species (i.e., DAR0+DAR1+DAR2+ . . . +DARn), whereas intact ADC refers to all conjugated species (i.e., DAR1+DAR2+ . . . +DARn). Total antibody assay used biotinylated mesothelin for capture. Intact ADC assay used biotinylated anti-eribulin 5E4 Fab fragment for capture and AlexaFluor647-labelled anti-human Fc for detection. Sample analysis was performed on a Gyros analyzer. Data analysis was performed in WatsonLIMS 7.4.1 and plotted in Microsoft Excel.
# [2] = test system: MSLN-expressing CHO cells; test: ADCC activity, luciferase assay with Jurkat-Effector cells; type: cell-based; details: Table 33: MORAb-109 and 345A12 HC15 LC4
# Procedure: MSLN-expressing CHO cells were thawed and seeded 1.000 cells/well (25 μL) in 96-well tissue culture plates in complete RPMI-4% Ultralow IgG FBS. […] 6,000 Jurkat-Effector cells (Promega) were thawed and added (25 μL) to the cell plate, and the plate was incubated at 37° C. 5% CO2 for 18-22 hours.
# Luciferase assay reagent was thawed in the dark. 75 μL of luciferase assay reagent was added to each well, plates were shaken for 30 sec on a plate shaker. Plates were read on a luminometer after 5 min incubation.
molecule,measurement,setting,value
B1,CL,"[1]; 5 mg/kg, Intact ADC",12.2 mL/day/kg
same,Cmax,"[1]; 5 mg/kg, Intact ADC",62.9 µg/mL
same,T1/2,"[1]; 5 mg/kg, Intact ADC",125.1 h
same,Vdss,"[1]; 5 mg/kg, Intact ADC",0.0787 L/kg
same,CL,"[1]; 5 mg/kg, Total Ab",7.58 mL/day/kg
same,Cmax,"[1]; 5 mg/kg, Total Ab",73.2 µg/mL
same,T1/2,"[1]; 5 mg/kg, Total Ab",173.9 h
same,Vdss,"[1]; 5 mg/kg, Total Ab",0.0751 L/kg
same,CL,"[1]; 10 mg/kg, Intact ADC",11.4 mL/day/kg
same,Cmax,"[1]; 10 mg/kg, Intact ADC",105 µg/mL
same,T1/2,"[1]; 10 mg/kg, Intact ADC",148.2 h
same,Vdss,"[1]; 10 mg/kg, Intact ADC",0.0995 L/kg
same,CL,"[1]; 10 mg/kg, Total Ab",6.22 mL/day/kg
same,Cmax,"[1]; 10 mg/kg, Total Ab",123 µg/mL
same,T1/2,"[1]; 10 mg/kg, Total Ab",231.6 h
same,Vdss,"[1]; 10 mg/kg, Total Ab",0.0896 L/kg
same,CL,"[1]; 15 mg/kg, Intact ADC",9.94 mL/day/kg
same,Cmax,"[1]; 15 mg/kg, Intact ADC",169 µg/mL
same,T1/2,"[1]; 15 mg/kg, Intact ADC",142.1 h
same,Vdss,"[1]; 15 mg/kg, Intact ADC",0.0811 L/kg
same,CL,"[1]; 15 mg/kg, Total Ab",5.66 mL/day/kg
same,Cmax,"[1]; 15 mg/kg, Total Ab",205 µg/mL
same,T1/2,"[1]; 15 mg/kg, Total Ab",209.2 h
same,Vdss,"[1]; 15 mg/kg, Total Ab",0.0688 L/kg
same,CL,"[1]; 20 mg/kg, Intact ADC",10.3 mL/day/kg
same,Cmax,"[1]; 20 mg/kg, Intact ADC",214 µg/mL
same,T1/2,"[1]; 20 mg/kg, Intact ADC",151.5 h
same,Vdss,"[1]; 20 mg/kg, Intact ADC",0.0909 L/kg
same,CL,"[1]; 20 mg/kg, Total Ab",5.52 mL/day/kg
same,Cmax,"[1]; 20 mg/kg, Total Ab",270 µg/mL
same,T1/2,"[1]; 20 mg/kg, Total Ab",218.6 h
same,Vdss,"[1]; 20 mg/kg, Total Ab",0.0706 L/kg
same,CL,"[1]; 25 mg/kg, Intact ADC",11.1 mL/day/kg
same,Cmax,"[1]; 25 mg/kg, Intact ADC",271 µg/mL
same,T1/2,"[1]; 25 mg/kg, Intact ADC",143.5 h
same,Vdss,"[1]; 25 mg/kg, Intact ADC",0.0911 L/kg
same,CL,"[1]; 25 mg/kg, Total Ab",5.76 mL/day/kg
same,Cmax,"[1]; 25 mg/kg, Total Ab",322 µg/mL
same,T1/2,"[1]; 25 mg/kg, Total Ab",226.1 h
same,Vdss,"[1]; 25 mg/kg, Total Ab",0.0782 L/kg
same,ADCC activity,[2],96.9%
